Experimental data: PubChem BioAssay AID1347073 (National Center for Advancing Translational Sciences (NCATS), 2019)
In all, about 45,000 compounds went through this assay and about 200 (0.44%) were called active. Roughly 7% stayed inconclusive and do not appear here. The call rests on the fitted dose curve; in most records, active means well fitted activation curve with a large enough effect; inconclusive means small, poorly fitted or top-dose-only effect; inactive means no such curve, though single readings can be large or run the other way. Some of the results follow.

Assay: qHTS of TDP-43 Inhibitors: NCGC Sytravon Library Screen; further: 0% is about no effect; nearly all actives have a fitted effect of over 55% in size
Conditions: yeast TDP-43 toxicity rescue, BacTiter-Glo growth, 24 h; series mostly up to 46.1 µM; growth rescue (activation): at the top concentration
In short: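 TDP-43-expressing yeast, pregrown in raffinose, seeded at OD600 0.02 in galactose medium with compound for 24 hr at 30 deg C. Growth read by BacTiter-Glo luminescence, so rescue of toxicity appears as activation.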

**Q.** Which “growth rescue (activation)” value does the source give for `Cc1ccc2nc(C(F)C(F)(F)F)[nH]c2c1` (stereo not drawn) here?
**A.** inactive: -15.8%

**Q.** For `OCC1(Cc2ccccc2)CCN(Cc2cnc(-c3cccc4ccccc34)nc2)CC1`, which “growth rescue (activation)” value is on record?
**A.** inactive: 13.1%

**Q.** With `Cc1cccc2c(CCNC(=O)c3ccc([N+](=O)[O-])cc3)c[nH]c12` as the molecule, how does the “growth rescue (activation)” value read?
**A.** inactive: -5.44%

**Q.** Which “growth rescue (activation)” value does the source give for `COc1ccc(CNC(=O)COC(=O)c2ccc(C(=O)c3ccccc3)cc2)cc1` here?
**A.** inactive: 13.3%

**Q.** With `CN1CCN(c2ccc(S(=O)(=O)N3CCCCC3)cc2NC(=O)Cc2ccccc2F)CC1` as the molecule, how does the “growth rescue (activation)” value read?
**A.** inactive: 4.26%

**Q.** With `CCCS(=O)(=O)N1CCC(C(=O)NCCCN(C)Cc2ccccc2)CC1` as the molecule, how does the “growth rescue (activation)” value read?
**A.** inactive: 16.6%

**Q.** With `Cc1cc(=O)n2[nH]c(NCc3ccccc3F)nc2n1` as the molecule, how does the “growth rescue (activation)” value read?
**A.** inactive: -8.32%

**Q.** With `COC(=O)C1C(=O)C2=C(CC1C)Nc1ccccc1NC2c1ccc(C)s1` (stereo not drawn) as the molecule, how does the “growth rescue (activation)” value read?
**A.** inactive: -3.23%

**Q.** With `CCOC(CNC(=O)Cc1c(C)nc2c(-c3ccccc3)c(C)nn2c1C)OCC` as the molecule, how does the “growth rescue (activation)” value read?
**A.** inactive: 10.6%

**Q.** Which “growth rescue (activation)” value does the source give for `COc1ccc(S(=O)(=O)NCCSCc2ccco2)cc1` here?
**A.** inactive: 11.4%

**Q.** Which “growth rescue (activation)” value does the source give for `O=C(c1ccc2ccccc2c1)N1CCCCC1` here?
**A.** inactive: 12.2%

**Q.** For `O=C(NCCCN1CCOCC1)c1ccc2c(c1)N(Cc1cccc(Cl)c1)C(=O)CS2`, which “growth rescue (activation)” value is on record?
**A.** inactive: 8.55%

**Q.** With `CCCCN(C(=O)CSc1nnc(-c2ccccc2)n1C)c1c(N)n(Cc2ccccc2)c(=O)[nH]c1=O` as the molecule, how does the “growth rescue (activation)” value read?
**A.** inactive: 8.7%

**Q.** For `S=C(NCc1ccco1)Nc1ccc(N2CCOCC2)cc1`, which “growth rescue (activation)” value is on record?
**A.** inactive: 5.78%

**Q.** With `COc1ccccc1N(CC(=O)NC1CCCCC1)S(=O)(=O)c1ccccc1` as the molecule, how does the “growth rescue (activation)” value read?
**A.** inactive: 9.39%

**Q.** Which “growth rescue (activation)” value does the source give for `CCOC(=O)C(=O)NC(C)CCc1ccccc1` (stereo not drawn) here?
**A.** inactive: 13.4%

**Q.** For `COc1cccc(NC(=O)NC2CCN(CC(=O)Nc3ccccc3[N+](=O)[O-])CC2)c1`, which “growth rescue (activation)” value is on record?
**A.** inactive: 7.03%

**Q.** With `O=C1Nc2ccccc2N(O)N1c1ccc(S(=O)(=O)Nc2ccccn2)cc1` as the molecule, how does the “growth rescue (activation)” value read?
**A.** inactive: -7.59%

**Q.** Which “growth rescue (activation)” value does the source give for `O=C1CN=C(Nc2ccc(Cl)cc2)N1c1ccccc1` here?
**A.** inactive: -17.6%

**Q.** For `Cc1ccc(-c2csc3nc(CN(C)Cc4ccccc4)[nH]c(=O)c23)cc1`, which “growth rescue (activation)” value is on record?
**A.** inactive: -0.733%

**Q.** Which “growth rescue (activation)” value does the source give for `COc1cc(NC(=S)NC(=O)c2ccccc2F)ccc1NC(=O)c1ccco1` here?
**A.** inactive: -5.82%

**Q.** Which “growth rescue (activation)” value does the source give for `O=C(Nc1ccc(Cl)cc1F)C1CC(=O)N(Cc2ccco2)C1` (stereo not drawn) here?
**A.** inactive: 10.1%

**Q.** With `CCCc1nc(-c2cc3ccccc3[nH]c2=O)no1` as the molecule, how does the “growth rescue (activation)” value read?
**A.** inactive: 0.627%

**Q.** For `O=C(Nc1ccc(Oc2ccccc2)cc1)c1csc([C@@H]2O[C@H](CO)[C@@H](O)[C@H]2O)n1`, which “growth rescue (activation)” value is on record?
**A.** inactive: 6.22%

**Q.** With `CC(=O)C(C)n1c(CN(C)Cc2ccccc2)nc2c1c(=O)n(C)c(=O)n2C` (stereo not drawn) as the molecule, how does the “growth rescue (activation)” value read?
**A.** inactive: 12%

**Q.** For `CC(NCc1cccs1)C(=O)Nc1cc(Cl)cc(Cl)c1` (stereo not drawn), which “growth rescue (activation)” value is on record?
**A.** inactive: 9.77%

**Q.** Which “growth rescue (activation)” value does the source give for `O=C(N/N=C/c1ccccc1F)C(=O)N1CCCCCC1` here?
**A.** inactive: 4.36%

**Q.** For `Cc1ccc(SCCN)cc1C`, which “growth rescue (activation)” value is on record?
**A.** inactive: -0.665%

**Q.** Which “growth rescue (activation)” value does the source give for `COc1ccccc1-n1cnnc1SC(C)C(=O)Nc1cccc([N+](=O)[O-])c1` (stereo not drawn) here?
**A.** inactive: 14.8%

**Q.** For `COCCn1c(SCC(=O)N2CCCC(C)C2)nnc1-c1ccco1` (stereo not drawn), which “growth rescue (activation)” value is on record?
**A.** inactive: 9.1%

**Q.** For `COC(=O)c1ccc(CNC(=O)c2ccc3c(c2)OCCO3)cc1`, which “growth rescue (activation)” value is on record?
**A.** inactive: 14.6%

**Q.** Which “growth rescue (activation)” value does the source give for `CCCNC(=O)c1cc(C2CCCN(S(=O)(=O)c3cccc4cccnc34)C2)on1` (stereo not drawn) here?
**A.** inactive: 5.93%

**Q.** With `CCOC(=O)CN1C(=O)CCSc2ccc(Cl)cc21` as the molecule, how does the “growth rescue (activation)” value read?
**A.** inactive: 17%

**Q.** With `CN1N=C(C(=O)N2CCCC(C(=O)c3cccc(C(F)(F)F)c3)C2)CCC1=O` (stereo not drawn) as the molecule, how does the “growth rescue (activation)” value read?
**A.** inactive: 13.5%

**Q.** Which “growth rescue (activation)” value does the source give for `CCOc1ccc2nc(SC3CC(=O)N(c4cccc(OC)c4)C3=O)sc2c1` (stereo not drawn) here?
**A.** inactive: 33%

**Q.** For `CN1/C(=C\C(=O)CSc2nncn2C)C(C)(C)c2ccccc21`, which “growth rescue (activation)” value is on record?
**A.** inactive: 24.3%

**Q.** For `COC(=O)C1CCN(C(=O)C2CC(=O)N(c3ccc(C)c(Cl)c3)C2)CC1` (stereo not drawn), which “growth rescue (activation)” value is on record?
**A.** inactive: -7.89%

**Q.** With `Cc1cc(C)c(C)c(S(=O)(=O)N2CCC(C(=O)NCC(c3ccccc3)N(C)C)CC2)c1C` (stereo not drawn) as the molecule, how does the “growth rescue (activation)” value read?
**A.** inactive: -4.63%

**Q.** For `CC(C)CC(OC(=O)c1nsc(Cl)c1Cl)C(=O)NC1CCCC1` (stereo not drawn), which “growth rescue (activation)” value is on record?
**A.** inactive: 17%

**Q.** With `COc1ccc(C(C)(C)C)cc1NC(=O)c1cccc(S(=O)(=O)N2CCN(C(C)=O)CC2)c1` as the molecule, how does the “growth rescue (activation)” value read?
**A.** inactive: 12.8%

**Q.** Which “growth rescue (activation)” value does the source give for `COCCCNC(=S)Nc1cccc(S(=O)(=O)NC2=NCCC2)c1` here?
**A.** inactive: 7.52%

**Q.** With `CCOc1ccc(CN(C)CC(O)COC(c2ccc(OC)cc2)c2ccc(OC)cc2)cc1` (stereo not drawn) as the molecule, how does the “growth rescue (activation)” value read?
**A.** inactive: 4.82%

**Q.** With `Cc1c(CNC(=O)C2CCC(=O)N(CCc3ccccc3)C2)cnn1C` (stereo not drawn) as the molecule, how does the “growth rescue (activation)” value read?
**A.** inactive: -29%

**Q.** Which “growth rescue (activation)” value does the source give for `COc1ccccc1NC(=O)c1c(C)nc2ccccc2c1C(=O)O` here?
**A.** inactive: 27.6%

**Q.** Which “growth rescue (activation)” value does the source give for `CCOc1ccc(NC(=S)NCc2nc3ccccc3[nH]2)cc1` here?
**A.** inactive: -10.7%

**Q.** With `O=C(NC(=S)N1CCN(Cc2ccccc2)CC1)c1ccccc1` as the molecule, how does the “growth rescue (activation)” value read?
**A.** inactive: 27.2%

**Q.** For `Cc1ccc(NC(=O)CN2C(=O)C(c3ccc(F)cc3)=NC2(C)C)c(C)c1`, which “growth rescue (activation)” value is on record?
**A.** inactive: 16.5%

**Q.** With `CCOC(=O)/C=C(\C)Nc1cc(C)nn1-c1ccccc1` as the molecule, how does the “growth rescue (activation)” value read?
**A.** inactive: 25.3%

**Q.** Which “growth rescue (activation)” value does the source give for `Cc1ccc(NS(=O)(=O)c2cccs2)c(C)c1` here?
**A.** inactive: 7.86%

**Q.** With `O=C(COC(=O)c1cccc([N+](=O)[O-])c1)c1ccc(OCc2ccccc2)cc1` as the molecule, how does the “growth rescue (activation)” value read?
**A.** inactive: 15.9%

**Q.** Which “growth rescue (activation)” value does the source give for `COc1ccc(OC)c(S(=O)(=O)N2CCC(C(=O)N3CCCC3)CC2)c1` here?
**A.** inactive: 2.18%

**Q.** Which “growth rescue (activation)” value does the source give for `O=C(Nc1ccccc1)N(C1=NCCC1)c1ccc(OC(F)F)cc1` here?
**A.** inactive: -33.9%

**Q.** Which “growth rescue (activation)” value does the source give for `CC(NC(=O)COC(=O)[C@@H]1CCCN1S(=O)(=O)c1ccccc1F)C12CC3CC(CC(C3)C1)C2` (stereo partly drawn) here?
**A.** inactive: 10.8%
